From US11344527B2, “Methods and compositions for treating cancer” (Sutter West Bay Hospitals, priority 2007, dated 2022)

Assays:
Type in all cases: cell-based, human
U251 cells [1] = assay: Boyden chamber invasion assay, U251; settings: FIG. 10
caspase 3, 7, 9 and PARP = assay: Caspase and PARP Western analysis, U251; settings: U251, three days; Δ9-THC 1.7 μM and/or CBD 0.4 μM; FIG. 9
Id-1 = Id-1 protein expression by quantitative Western analysis, MDA-MB231
Source text: Proteins were separated by SDS/PAGE, blotted on Immobilon membrane, and probed with anti-Id-1 and the appropriate secondary antibody. Band intensity values were obtained directly from the blot using AlphaeaseFC software (San Leandro, Calif.) or from film using Image-J (NIH, MD). As a normalization control for loading, blots were stripped and re-probed with mouse alpha-tubulin (Abeam, Cambridge, Mass.).
The ability of CBD to regulate the expression of key genes that control breast cancer cell aggressiveness and invasiveness was determined A potential candidate protein that could mediate the effects of CBD on both phenotypes was the helix-loop-helix protein Id-1. […] The inhibitory effect of CBD on Id-1 expression occurred at concentrations as low as 100 nM. […] The CBD concentrations effective at inhibiting Id-1 expression correlated with those used to inhibit the proliferative and invasive phenotype of MDA-MB231 cells. Furthermore, the time period needed to observe the down-regulation of Id-1 protein in the presence of CBD correlated with the inhibitory effects of CBD on the aggressiveness and invasiveness of MDA-MB231 cells (FIG. 1, panel D).
In order to determine the SAR between cannabinoids and the inhibition of Id-1, MDA-MB231 cells were treated for two days with multiple cannabinoid compounds and Id-1 protein levels were assessed.

Id-1 mRNA = Id-1 mRNA expression by polymerase chain reaction, MDA-MB231; settings: MDA-MB231 cells; FIG. 2A
Method: Total cellular RNA was isolated from breast cancer cells treated with vehicle control or with CBD. Transcripts for Id-1 and for β-actin were reverse transcribed using SuperscriptII Reverse TranscriptaseII (Gibco-BRL), and polymerase chain reaction performed. The 5′ and 3′ PCR primers were […] (SEQ ID NO:1) and […] (SEQ ID NO:2) for Id-1; and […] (SEQ ID NO:3) and […] (SEQ ID NO:4) for β-actin. PCR was performed in buffer containing 1 μM of each of the 5′ and 3′ PCR primer and 0.5 U of Taq polymerase using 25 cycles for amplification of Id-1 and β-actin cDNAs. The cycle conditions were 45 sec denaturation at 94° C., 45 sec annealing at 55° C., and 1 min extension at 72° C.
To determine if this effect was due to the inhibition of transcription, a construct was used that contained the Id-1 promoter fused to a luciferase reporter in a PGL-3 basic vector. This construct was transiently transfected into MDA-MB231 cells. Twenty-four hours after transfection, MDA-MB231-Id-1-luc cells were treated with CBD for 2 or 3 days and luciferase activity was measured (FIG. 2, panel B and panel C). Transfection efficiency and analysis of equal amounts of total protein were controlled by contransfection of the cells with pCMVB containing β-galactosidase. […] These findings correlated to the data obtained when the expression of the Id-1 protein was assessed by Western analysis.

U251 cells [2] = assay: Apoptosis (annexin staining, FACS), U251; settings: U251, three days
Method: Cells were grown in 6 well culture dishes and were treated with the appropriate compounds every 24 hours for three days. The cells were trypsinized, washed with PBS, and processed for labeling with fluorescein-tagged UTP nucleotide and PI by use of an Apo-Direct apoptosis kit obtained from Phoenix Flow Systems (San Diego, Calif.) and was used according to the manufacturer's protocol. The labeled cells were analyzed by flow cytometry. Cell Flow Cytometry in combination with PI and annexin staining was used to quantify the percentage of cells undergoing apoptosis in control and treatment groups. % control was calculated as annexin positive staining in treated cells/control cells×100. PI staining was used to distinguish necrotic cells from those undergoing apoptosis.

C=C(C)[C@@H]1CCC(C)=C[C@H]1c1c(O)cc(CCCCC)cc1O [CBD, cannabidiol]
invasiveness of U251 cells (U251 cells [1]): significantly reduce | caspase 3, 7, 9 and PARP activation (caspase 3, 7, 9 and PARP): no changes in caspase activity | Id-1 protein expression in MDA-MB231 cells (Id-1; 0.1, 1.0 or 1.5 μM, three days, FIG. 1B, C): concentration-dependent inhibition | concentration as low as which the inhibitory effect on Id-1 expression occurred (Id-1; MDA-MB231 cells): 100 nM | inhibition of Id-1 protein (structure activity relationship) (Id-1; MDA-MB231 cells, 1.5 μM, two days, FIG. 1E): greatest inhibition | Id-1 mRNA expression (Id-1 mRNA): significantly reduced | apoptosis in the presence of the CB2 antagonist SR144528 (U251 cells [2]; 0.5 μM SR144528, combination 1.7/0.4 μM, 2.5 μM Δ9-THC or 2.0 μM CBD, FIG. 6): no reversal | apoptosis in the presence of α-tocopherol (U251 cells [2]; 20 μM α-tocopherol, combination 1.7/0.4 μM, 2.5 μM Δ9-THC or 2.0 μM CBD, FIG. 6): completely blocked | apoptosis (annexin staining) (U251 cells [2]; Δ9-THC 1.7 μM and/or CBD 0.4 μM, FIG. 5): did not produce significant changes
